Source: PubChem BioAssay AID2100 (National Center for Advancing Translational Sciences (NCATS), 2009)
About 1,200 (0.4%) of roughly 300,000 compounds were called active. The shares of active, inactive and inconclusive entries below differ from those in the screen. Calls come from the whole dose curve; as a rule, active = well fitted inhibition curve with a large enough effect; inconclusive = small, poorly fitted or top-dose-only effect, or another doubt; inactive = no such curve, though single readings can be large or run the other way. Where the call is inconclusive, the potency comes from a doubtful curve fit.

Each molecule was assayed against Lysosomal alpha-glucosidase (Homo sapiens) (UniProt P10253) (assay: qHTS Assay for Inhibitors and Activators of Human alpha-Glucosidase Cleavage of Glycogen). Conditions: recombinant GAA, glycogen substrate, Amplex Red glucose oxidase fluorescence; activity change, negative = inhibition: at 76.4 µM (top of the series) unless noted.
Outline: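 Recombinant human enzyme (4 nM); glycogen substrate; 37 C, 40 min, pH 5.0. Readout: coupled glucose oxidase/Amplex Red fluorescence.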
Potency is the fitted concentration of half-maximal effect.
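Throughout, for activity change, negative = inhibition: 0% = full enzyme reaction and -100% = no-enzyme basal signal.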

Row | SMILES | Potency | activity change, negative = inhibition
1 | CCN1/C(=C/C=C/C=C/c2sc3ccccc3[n+]2CC)Sc2ccccc21 | inconclusive: 28.2 µM [inhibitor, single point] | –
2 | OC1CCN(C(=S)Nc2ccc(Nc3ccccc3)cc2)CC1 | active: 3.98 µM | –
3 | C/C(=C\C=C(C#N)C#N)c1cc(C#N)c(N)o1 | inconclusive: 5.01 µM [inhibitor, full curve] | –
4 | O=C(Nc1ccccc1F)Nc1ccccc1N1CCCCC1 | inconclusive: 15.8 µM [inhibitor, partial curve] | –
5 | CN1CCc2c(sc3c2c(=O)n(-c2ccccc2)c2nncn32)C1 | inconclusive: 22.4 µM [activator, partial curve] | –
6 | O=C1C(=O)N2C(=C1C(=O)N1CCCCCC1)c1ccccc1CC21CCCC1 | – | inactive: 4.12%
7 | CC(C)(NO)/C(=N/O)c1cccs1 | inconclusive: 35.5 µM [inhibitor, single point] | –
8 | CC(=O)Nc1cc(C(C)C)c(O)c(C(C)C)c1 | active: 11.1 µM | –
9 | Cc1cccc(C)c1NC(=O)Cn1c(=O)n(CCCC(=O)NCc2ccco2)c(=O)c2sccc21 | inconclusive: 11.1 µM [inhibitor, partial curve, poor fit] | –
10 | Cc1ccc(-c2csc(=S)[nH]2)cc1 | inconclusive: 25.1 µM [inhibitor, partial curve, poor fit] | –
11 | COc1ccc(S(=O)(=O)N(CCCN2CCOCC2)Cc2cccc3ccccc23)cc1 | inconclusive: 11.1 µM [inhibitor, partial curve] | –
12 | O=C(Nc1ccc2c(c1)OCCO2)c1ccc(Br)o1 | – | inactive: 4.03%
13 | O=C(NNC(=S)Nc1ccc(Br)cc1Cl)c1ccncc1 | inconclusive: 31.6 µM [inhibitor, partial curve] | –
14 | O=C(NN=C1CCN(Cc2ccccc2)CC1)c1ccccc1O | inconclusive: 8.91 µM [inhibitor, partial curve] | –
15 | C=CCOc1ccc(CNc2ccc3[nH]c(=O)[nH]c3c2)cc1OC | inconclusive: 15.7 µM [inhibitor, single point] | –
16 | COc1ccc(-n2c(O)c(/C=N/NS(=O)(=O)c3cccc([N+](=O)[O-])c3)c3ccccc3c2=O)cc1OC | inconclusive: 31.6 µM [inhibitor, single point] | –
17 | O=c1cc(CO)oc(C(Nc2ccccn2)c2ccccc2Cl)c1O (centres undefined) | inconclusive: 35.5 µM [inhibitor, single point] | –
18 | O=C(O)c1ccc2c(c1)C(=O)/C(=C\c1ccco1)C2=O | – | inactive: -12.2%
19 | Cc1[nH]n(-c2ccccc2)c(=O)c1-c1cccc(Cl)c1 | inconclusive: 17.6 µM [inhibitor, partial curve] | –
20 | COc1ccc(C2C(C(=O)Nc3cccnc3)=C(C)Nc3nc(-c4cccs4)nn32)cc1OC (centres undefined) | inconclusive: 20 µM [inhibitor, single point] | –
21 | Fc1ccc(/C=N/Nc2nccnc2Cl)cc1 | – | inactive: -1.94% [at 76.3 µM]
22 | COc1ccc(O)c(C2(O)C(=O)c3ccccc3C2=O)c1 | inconclusive: 39.8 µM [inhibitor, partial curve] | –
23 | Cc1ccc(N/N=C/c2ccncc2)cc1 | inconclusive: 10 µM [inhibitor, partial curve] | –

Row | SMILES | Potency | activity change, negative = inhibition
24 | O=C(c1cccc(F)c1)N1CCN(C(=O)c2nn3cccnc3c2Cl)CC1 | inconclusive: 44.7 µM [inhibitor, single point] | –
25 | CCOc1ccc(CNC(=S)N/N=C/c2ccc(OC)c(OC)c2)cc1 | inconclusive: 15.8 µM [inhibitor, partial curve] | –
26 | CCOC(=O)C1=C(C)NC(C)=C(C(=O)OCC)C1C(=O)O | inconclusive: 25.1 µM [inhibitor, partial curve] | –
27 | CC1=NN(Cc2ccccc2)C(=O)C1C(c1ccncc1)C(C#N)C#N (centres undefined) | inconclusive: 31.6 µM [inhibitor, single point] | –
28 | Cc1ccc(NC(=O)COc2ccc(/C(N)=N/O)cc2)cc1C | inconclusive: 39.8 µM [inhibitor, single point] | –
29 | Cc1cccn2cc(-c3cccc(NC(=O)c4cccs4)c3)nc12 | – | inactive: 2.32%
30 | Cc1ccc(-c2nnc(Nc3ccc(O)cc3)c3ccccc23)cc1S(=O)(=O)NC(C)(C)CO | active: 8.91 µM | –
31 | C=CCNC(=S)N/N=C(\C)c1cccc(NC(C)=O)c1 | inconclusive: 39.8 µM [inhibitor, single point] | –
32 | O=C(O)c1ccc(N/N=C/c2ccc(C(F)(F)F)cc2)cc1 | inconclusive: 17.8 µM [inhibitor, partial curve] | –
33 | CC(C)NS(=O)(=O)c1ccc(NC(=S)NC(=O)c2cccc([N+](=O)[O-])c2)cc1 | inconclusive: 31.4 µM [inhibitor, single point] | –
34 | CCc1c(C)c(C#N)c2nc3ccccc3n2c1Nc1c(C)n(C)n(-c2ccccc2)c1=O | active: 25.1 µM | –
35 | CCCCn1c(=O)c2ccccc2n2c(=S)[nH]nc12 | inconclusive: 50.1 µM [inhibitor, single point] | –
36 | COc1ccc(-c2noc(CSc3nc4ccccc4c(=O)n3-c3ccc(C)cc3)n2)cc1 | inconclusive: 8.91 µM [inhibitor, full curve, poor fit] | –
37 | Cc1cccc(Cn2c(SCC(=O)Nc3ccccc3)nc3c2c(=O)[nH]c(=O)n3C)c1 | – | inactive: 2.86%
38 | CCc1cccc(CC)c1NC(=S)NCC(c1cccnc1)N1CCOCC1 (centres undefined) | – | inactive: -7.14%
39 | Cc1cccc(N2CCN(c3ccc(NC(=O)/C=C\C(=O)O)cc3)CC2)c1 | inconclusive: 28.2 µM [inhibitor, partial curve] | –
40 | C/C(=N/NC(=O)c1cnccn1)c1ccncc1 | inconclusive: 22.4 µM [inhibitor, partial curve] | –
41 | CN1CCc2c(n(CC(O)CNCc3ccccc3)c3ccccc23)C1=O (centres undefined) | inconclusive: 31.6 µM [activator, single point] | –
42 | COc1cc(-c2nc(-c3ccccc3)c(-c3ccc(Br)cc3)[nH]2)cc(OC)c1O | – | inactive: -27% [at 76.3 µM]
43 | NNC(=O)c1cccc(COc2ccccc2Br)c1 | inconclusive: 22.2 µM [inhibitor, single point] | –
44 | CCCC(=O)NC(=S)Nc1cccc2c(O)cccc12 | active: 8.91 µM | –
45 | COc1ccc(/C=N/Nc2ccccn2)cc1OC | inconclusive: 20 µM [inhibitor, partial curve] | –
46 | O=C(c1ccc(-c2cccc(C(F)(F)F)c2)o1)N1CCN(c2ccccc2O)CC1 | inconclusive: 50.1 µM [inhibitor, single point] | –

Row | SMILES | Potency | activity change, negative = inhibition
47 | C=CCc1c(C)nc(-c2ccccc2)nc1N/N=C(\C)c1ccccc1 | inconclusive: 7.08 µM [inhibitor, single point] | –
48 | Cc1ccccc1C1C(C#N)=C2N=C(N)c3c(sc4c3CCCCC4)N2C2=C1C(=O)CCC2 (centres undefined) | inconclusive: 28.2 µM [inhibitor, single point] | –
49 | Cc1ccc(NC(=O)C2C(=O)N(C)c3ccccc32)cc1 (centres undefined) | inconclusive: 50.1 µM [inhibitor, single point] | –
50 | NC(=Nc1ccc(N)cc1)C(N)=Nc1ccc(N)cc1 | inconclusive: 39.5 µM [inhibitor, single point] | –
51 | Cc1ccc(/C=C2\CCC3=C2OC(N)=C(C#N)C3c2ccc(C)cc2)cc1 (centres undefined) | inconclusive: 31.6 µM [activator, single point] | –
52 | Cc1nc(N)sc1-c1csc(Nc2ccccc2)n1 | inconclusive: 28.2 µM [inhibitor, single point] | –
53 | CC(=O)Nc1ccc(-c2csc(Nc3cccc(C)n3)n2)cc1 | – | inactive: -2.15%
54 | N/C(=N\O)c1ccccc1-n1cccc1 | inconclusive: 11.2 µM [inhibitor, single point] | –
55 | CCCc1nc2n[nH]c(N)c2c2c1CCCC2 | inconclusive: 39.8 µM [inhibitor, partial curve] | –
56 | Clc1ccccc1C1Nc2cccc3cccc(c23)N1 | inconclusive: 7.94 µM [inhibitor, partial curve] | –
57 | Cn1c(SCC(=O)Nc2cccnc2)nnc1-c1ccccc1F | – | inactive: 7.52%
58 | O=C(NCCc1ccccc1)c1ccc(CSc2nc3ccncc3n2Cc2cccc(F)c2)cc1 | inconclusive: 6.31 µM [inhibitor, single point] | –
59 | Cc1c(NCc2ccccc2O)c(=O)n(-c2ccccc2)n1C | inconclusive: 7.94 µM [inhibitor, partial curve] | –
60 | CCOC(=O)C1=C(C(F)(F)F)Nc2ncnn2C1c1cccc(OC)c1OC (centres undefined) | inconclusive: 11.2 µM [inhibitor, single point] | –
61 | COc1ccc(O)c(CNn2c(-c3ccc(Br)cc3)nc3ccccc3c2=O)c1 | – | inactive: -13.2%
62 | FC(F)(F)c1ccc2c(c1)C1C=CCC1C(c1ccncc1)N2 (centres undefined) | inconclusive: 39.5 µM [activator, single point] | –
63 | C/C(=N/NC(=O)c1sc(NS(=O)(=O)c2ccc(C)cc2)nc1C)c1sc(N)nc1C | inconclusive: 39.5 µM [inhibitor, single point] | –
64 | Cc1c(N=Cc2ccc(-c3ccc(Cl)cc3)o2)c(=O)n(-c2ccccc2)n1C | – | inactive: -10.5%
65 | COC(=O)c1c(C)sc(-c2c(-c3ccc4c(c3)OCCO4)[nH]c3c2c(=O)[nH]c(=O)n3C)c1O | inconclusive: 12.6 µM [inhibitor, partial curve] | –
66 | C/C(CC(=O)NC1CCCCC1)=N\NC(=O)c1ccccn1 | inconclusive: 4.47 µM [inhibitor, full curve] | –
67 | CCC1=NN(C(=O)c2ccc(Br)cc2)C(O)(c2ccccc2)C1 (centres undefined) | inconclusive: 20 µM [inhibitor, single point] | –
68 | O=C(Cc1c(F)cccc1Cl)Nc1ccccc1C(=O)N1CCOCC1 | – | inactive: 0.892% [at 76.3 µM]
69 | O=C(O)c1ccc(N/N=C/c2ccc(-c3ccc(Cl)cc3Cl)o2)cc1 | inconclusive: 35.5 µM [inhibitor, partial curve] | –
